Results are given in words; binding and its absence hold for the method and conditions named. Some results given as binding are weak or reduced against the parent protein; the word gives no strength.

Results on 7 molecules are retold here after paper PMC7718735.

T1: Lem2 MYTH bait (S. pombe) (UniProt Q10109)
T1 sequence: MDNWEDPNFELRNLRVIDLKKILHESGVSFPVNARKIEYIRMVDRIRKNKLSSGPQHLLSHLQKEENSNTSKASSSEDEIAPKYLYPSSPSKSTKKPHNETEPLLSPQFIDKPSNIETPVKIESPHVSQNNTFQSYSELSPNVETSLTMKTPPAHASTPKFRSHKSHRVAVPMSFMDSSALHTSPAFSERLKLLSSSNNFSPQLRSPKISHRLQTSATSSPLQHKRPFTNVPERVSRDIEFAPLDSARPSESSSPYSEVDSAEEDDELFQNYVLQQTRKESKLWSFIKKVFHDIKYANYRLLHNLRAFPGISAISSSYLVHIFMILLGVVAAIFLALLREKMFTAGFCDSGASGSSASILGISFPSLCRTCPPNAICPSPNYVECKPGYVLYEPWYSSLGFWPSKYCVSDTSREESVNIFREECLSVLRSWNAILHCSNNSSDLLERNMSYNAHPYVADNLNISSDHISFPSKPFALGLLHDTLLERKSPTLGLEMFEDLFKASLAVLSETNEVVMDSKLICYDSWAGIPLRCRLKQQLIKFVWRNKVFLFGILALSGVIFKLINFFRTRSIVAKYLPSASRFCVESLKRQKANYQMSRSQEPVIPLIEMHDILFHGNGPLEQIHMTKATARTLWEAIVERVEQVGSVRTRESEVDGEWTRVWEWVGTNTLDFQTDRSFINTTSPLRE

B1: Shf1 MYTH prey (protein, UniProt Q9UUI2 1-165)
chain: MSSRRNDYHYDGNDHQYRSPLKSNVDQNSFYESSYRSRQSYHQRTKTPRSSYDSPSSSTNSKEHNSPYHYRVPSNNSTRASFGAASTDTNVELPKINLPDSSLSSKLQSCKSACENSSQSLLNVEQQYAQQVHFWEKIRTDIYREGLRSDAAVKSLNDFVNNVSF
B2: Raf2 MYTH prey (protein, UniProt O74560 1-636)
chain: MPPVRAEKKRKTDLIEQVCVTNKAGELVDLEDVLEYGPYSLTGILSSEKDEQEPLFDESIVLGYSIKISPVWTYNLKDVPEKETMSIWIVTPQRRYGILSPSSEYKAIYEQISEKNRLFYLIKTKFKDDMISGTLEDYDNYIEVLKEKLELPSCFQAILLVQKHIRFLLTQMVATSSLHVWSESPFFIRIRSSYEHLILQINKNIYNARQERKKSKLSSNNPSDNNTTMKSSLNQALTLINLPEQPFSISSPTATPQLGVVKRTSPLRFPLNDIWLSGLRIVDPNIESISLWKRIQVSTSPKHQRYISLQEVCSVIAQQLQITNLEALNKLSSHGETLLQIMHTAFTWRGTKLFNDIKHAIGFRSSVQQARSQFRGYCYDYLFMHCNNGEKTSLHLLRTLICMKLDFSNAQLAAKILFHFLLFDIGSGLSGSDYTYEQYINHSAVAFSFTEEIFEKNFVTVLPDFVKLFSISFGYWPAFSFYDELLKLLRNKYPKVYSSTPNLCDQVWLDRTNLFPCNRSTRSTLPYRPTKLLDLASASSCLSKKETDFKQDTGLYSYNLEKVEALKVSPDLQTGIWSCPVQNCLYFAVCDNPYKPSQVIYDHLLGHVDSKFIFKTPSNSVRSFTNKLEHIMYNIN
B3: Brl1 MYTH prey (protein, UniProt Q1MTQ0 1-692)
chain: MSVVNESRKRRRLIHSEKETRRLDLGEEDDLELFQKEAAWRRSREYEHLTVLEKKLYEYWESLVLKLDHYVAAALENHEQSFEELEKITASLYQPDDNLQTLDLSLAEFSLIKDAQNYLNKYASYFQAHEPTLQKLAKFGSFKLKETPNVHEWIDQRQVHFTSMINYRTSQLKLALLKRKLSFFREALNSAELEWKRVQQDQLTSASERSIENIADDIPASEPKAILENGEGCLNDNDNISKLKNNFQSQADLMQANINSKLDELSQKSTRAAQLYVDIMGITDERVSREPHYLELKGVLSSNEEKIESINRDLSSLFEDIQFFISQRTKRQKDIIDLKLACVKEKQQLIKTLESSLTQIRNERDSLVAKQQMQYTNNLFFDDMMLLLSNLSNARVAILEGYSNRLCIWDRIERSKTGEMNNVLDEKEEISASSALEKLIKNNSCLEAELPSMYAAFDQSQSRLLKKYEELETKEKKALEMHYEKARATQKYFAAMKARDILMTEKKTLKLAENKEHDYIGKLQEREHALTKYESSLKAELEVYKQIKEIYGKHSVEVLTEDKHLQVKQTKLTQKLEDLIESVQKSGEKLMIMHQKLFHLQEEHTILSIKASYNKKESHLINQAYETQEAQVYKGMLKCSVCNFSNWKSKLIPNCGHAFCSNCMEPFYEHKTSTCPQCETPFSVSDILTIHL
B4: Pcu4 MYTH prey (protein, UniProt O14122 1-734)
chain: MPPEAKRIVVKGFDPRKSRQRQETYYVTMIDRLNMALQVVMAGLGLKTGYQELYSGVENLTRADQASRCFNILQHHMSSGIQLLKDSAESFIQLEGTETDTNACTVVVGCWNKWLERVEIVQNIFYYMDKTFLSHHPDYPTIEELSLSLFREKLMAVKNIQIPFLNSLLQSFENLHSSKSTDHAYLQDAMLMLHRTEMYSSVFVPMYLVMLSRFYDTESSQKIQELPLEEYLEYAMSSLEREDAYVEKFDIVRDKKSIRETVQRCLITSHLDTLTKGISQFIEKRDAHSCKLLYALLQFNHETEYLIQPWSDCLVDVGFKLVNDESKDDTLVQELLSFHKFLQVVVDESFLHDETLSYAMRKAFETFINGAKGSQREAPARLIAKYIDYLLRVGEQASGGKPLKEVFSEILDLFRYIASKDIFEAYYKLDIAKRLLLNKSASAQNELMLLDMLKKTCGSQFTHSLEGMFRDVNISKEFTSSFRHSKAAHNLHRDLYVNVLSQAYWPSYPESHIRLPDDMQQDLDCFEKFYLSKQVGKKISWYASLGHCIVKARFPLGNKELSISLFQACVLLQFNNCLGGEGISYQDLKKSTELSDIDLTRTLQSLSCARIRPLVMVPKSKKPSPDTMFYVNEKFTDKLYRVKINQIYLKEERQENSDVQEQVVRDRQFELQASIVRVMKQKEKMKHDDLVQYVINNVKDRGIPLVSDVKTAIEKLLEKEYLEREDNDIYTYVT
B5: Sec13 MYTH prey (protein, UniProt O94319 1-297)
chain: MTTVDTQHDDMIHDAILDYYGKRLATCSSDQTIKVFSIENNQQTLLETLRGHSGPVWQLGWAHPKFGTILASASYDGHVIVWRETGGVWSELMDHTAHQASVNAVSWAPHEYGALLACASSDGKVSVLEFKDDGSCDTRIFTAHEPGCNAVCWSPPSLSGSVVGQSPAAGPKKLATAGCDNLVKIWAFDAGVNNWILEDTLAGHVDWTRDVAWAPSVGLTKTYLASASQDKNVFIWTKEGDGPWQKTPLTEEKFPDIAWRVSWSLSGNILAVSCGDNKVYLFKESQNKWQLLNELSN
B6: Ago1 MYTH prey (protein, UniProt O74957 1-834)
chain: MSYKPSSEIALRPGYGGLGKQITLKANFFQIISLPNETINQYHVIVGDGSRVPRKQSQLIWNSKEVKQYFGSSWMNSVYDGRSMCWSKGDIADGTIKVNIGSESHPREIEFSIQKSSKINLHTLSQFVNSKYSSDPQVLSSIMFLDLLLKKKPSETLFGFMHSFFTGENGVSLGGGVEAWKGFYQSIRPNQGFMSVNVDISSSAFWRNDSLLQILMEYTDCSNVRDLTRFDLKRLSRKFRFLKVTCQHRNNVGTDLANRVYSIEGFSSKSASDSFFVRRLNGEEQKISVAEYFLENHNVRLQYPNLPCILVKNGAMLPIEFCFVVKGQRYTAKLNSDQTANMIRFAVQRPFERVQQIDDFVHQMDWDTDPYLTQYGMKIQKKMLEVPARVLETPSIRYGGDCIERPVSGRWNLRGKRFLDPPRAPIRSWAVMCFTSTRRLPMRGIENFLQTYVQTLTSLGINFVMKKPPVLYADIRGSVEELCITLYKKAEQVGNAPPDYLFFILDKNSPEPYGSIKRVCNTMLGVPSQCAISKHILQSKPQYCANLGMKINVKVGGINCSLIPKSNPLGNVPTLILGGDVYHPGVGATGVSIASIVASVDLNGCKYTAVSRSQPRHQEVIEGMKDIVVYLLQGFRAMTKQQPQRIIYFRDGTSEGQFLSVINDELSQIKEACHSLSPKYNPKILVCTTQKRHHARFFIKNKSDGDRNGNPLPGTIIEKHVTHPYQYDFYLISHPSLQGVSVPVHYTVLHDEIQMPPDQFQTLCYNLCYVYARATSAVSLVPPVYYAHLVSNLARYQDVTADDTFVETSEASMDQEVKPLLALSSKLKTKMWYM
B7: Mmi1 MYTH prey (protein, UniProt O74958 1-488)
chain: MSNTNFSTSRSSKSIPELPNLEALRSLWPPPSLNESGDTRSVWTTHTGEPVASSVLSTSGSNNFSSPLKRPAPESHDAPIGRRLMVDDPRLIKHGKYDFSRHCTDYGHSYEWPYFRSLRRESMLYHTSGSYPESQPPYSSYSTDAPHYYHAGSESSAYYDSRSRLHGIQPPPKRRTLSPPPRRLADPVVVGSSRYVEEEVYRRPPYTLASEVPSSASAYQAGYSSYPVRSSPQLSHEDTRHGIASSGSTRYPFVPANTRASHSPSLLEPYAHSLPSSVAPVGAYPEKSSYLLSNSSNDSASRKEKPKARASTPPPLNFSRASEHRNEKGERISMINPRVVLDENGISHRSRYFIMLCDNETAIAHAKKTSIWAVKKDSSKRISDAYKKASVYFIFVAQQTYNALGYAQVVSDLNSTELPFWSDSSHAGGVRIKWIKTCNLFSAEISEIVSHMDHGSEARDGMEMMYDEGSRLCTLINYAIMKRIGRDR

The target in this experiment is T1, Lem2 MYTH bait (S. pombe). Description: two-hybrid; split-ubiquitin membrane yeast two-hybrid (MYTH) in S. cerevisiae; bait-Cub-LexA-VP16 strains mated with the arrayed Nub prey library, diploids spotted in quadruplicate on SD-leu-trp-ade-his with 25 mM 3-AT, imaged every 24 hr for 4 days; positive by a colony density cutoff.
With B1, the binding result is “no binding”.

Turning to B2, the binding entry is “no binding”.

For the molecule B3, the binding entry is reported as “no binding”.

Take B4: the binding entry is on record as “no binding”.

Take B5: the binding result is “binds weakly”.

On to B6, for which the binding entry was “no binding”.

Consider B7, for which the binding result is “no binding”.
